≈ marks a conversion by molar mass, not a printed value.

Assay [1] relates to E. coli RCMB 010052. Briefly: MIC, two-fold serial dilution. Particulars: Escherichia coli, RCMB010052, read-out: MIC E. coli RCMB 010052.
The subject of assay [2] is P. aeruginosa. Briefly: Agar well diffusion, inhibition zone. Type of assay: cell-based. To be noted: Pseudomonas aeruginosa, read-out: Mean diameter of inhibition zone (mean ± SEM) P. aeruginosa.
The subject of assay [3] is E. coli RCMB 010052. Briefly: Agar well diffusion, inhibition zone. Type of assay: cell-based. To be noted: Escherichia coli, RCMB010052, read-out: Mean diameter of inhibition zone (mean ± SEM) E. coli RCMB 010052.
Assay [4] deals with S. pneumoniae 010010. The assay is described as follows: Agar well diffusion, inhibition zone. Type of assay: cell-based. Particulars: Streptococcus pneumoniae, 010010, read-out: Mean diameter of inhibition zone (mean ± SEM) S. pneumoniae 010010.
The test system of assay [5] is S. typhi ATCC 14028. The assay is described as follows: MIC, two-fold serial dilution. It is filed as cell-based. Particulars: Salmonella enterica, read-out: MIC S. typhi ATCC 14028.
Assay [6] concerns S. aureus 25923. The assay is described as follows: MIC, two-fold serial dilution. Particulars: Staphylococcus aureus, 25923, read-out: MIC S. aureus 25923.
The subject of assay [7] is A. fumigatus RCMB 02568. Briefly: MIC, two-fold serial dilution. Particulars: Aspergillus fumigatus, RCMB02568, read-out: MIC A. fumigatus RCMB 02568.
In assay [8] the test system is E. faecalis. The assay is described as follows: MIC, two-fold serial dilution. Particulars: Enterococcus faecalis, read-out: MIC E. faecalis.
Assay [9] deals with P. aeruginosa. Briefly: MIC, two-fold serial dilution. To be noted: Pseudomonas aeruginosa, read-out: MIC P. aeruginosa.
Assay [10] deals with A. fumigatus RCMB 02568. The assay is described as follows: Agar well diffusion, inhibition zone. To be noted: Aspergillus fumigatus, RCMB02568, read-out: Mean diameter of inhibition zone (mean ± SEM) A. fumigatus RCMB 02568. It is filed as cell-based.
Assay [11] relates to S. pneumoniae 010010. Briefly: MIC, two-fold serial dilution. Particulars: Streptococcus pneumoniae, 010010, read-out: MIC S. pneumoniae 010010.
The subject of assay [12] is C. albicans ATCC 10231. The assay is described as follows: MIC, two-fold serial dilution. To be noted: Candida albicans, ATCC10231, read-out: MIC C. albicans ATCC 10231.
Assay [13] concerns C. albicans ATCC 10231. Briefly: Agar well diffusion, inhibition zone. Particulars: Candida albicans, ATCC10231, read-out: Mean diameter of inhibition zone (mean ± SEM) C. albicans ATCC 10231. It is filed as cell-based.
Assay [14] relates to S. typhi ATCC 14028. The assay is described as follows: Agar well diffusion, inhibition zone. Type of assay: cell-based. To be noted: Salmonella enterica, read-out: Mean diameter of inhibition zone (mean ± SEM) S. typhi ATCC 14028.
Assay [15] has as its system E. faecalis. The assay is described as follows: Agar well diffusion, inhibition zone. It is filed as cell-based. Particulars: Enterococcus faecalis, read-out: Mean diameter of inhibition zone (mean ± SEM) E. faecalis.
Assay [16] has as its system S. aureus 25923. The assay is described as follows: Agar well diffusion, inhibition zone. It is filed as cell-based. Particulars: Staphylococcus aureus, 25923, read-out: Mean diameter of inhibition zone (mean ± SEM) S. aureus 25923.

Turning to `Cc1c(NC2=NC(=O)CS2)c(=O)n(-c2ccccc2)n1C` [Compound 1, 2-((1,5-Dimethyl-3-oxo-2-phenyl-2,3-dihydro-1H-pyrazol-4-yl)amino)thiazol-4(5H)-one], the minimal inhibitory concentration (MIC) with E. coli RCMB 010052 [1] came to 18.3 µM (≈ 5.54 µg/mL); with S. typhi ATCC 14028 [5], 62.2 µM (≈ 18.8 µg/mL); in the assay with S. aureus 25923 [6], 3.63 µM (≈ 1.1 µg/mL); in the assay on A. fumigatus RCMB 02568 [7], 20.8 µM (≈ 6.29 µg/mL); in the assay on E. faecalis [8], 16.1 µM (≈ 4.88 µg/mL); with P. aeruginosa [9], 7.52 µM (≈ 2.27 µg/mL). Also, the minimal inhibitory concentration (MIC) with S. pneumoniae 010010 [11] is 3.94 µM (≈ 1.19 µg/mL); with C. albicans ATCC 10231 [12], 38.3 µM (≈ 11.6 µg/mL). Besides, the zone of inhibition at 500 µg/mL worked out at 27 ± 0.51 mm in the assay on P. aeruginosa [2]; 26 ± 0.22 mm with E. coli RCMB 010052 [3]; 30 ± 0.87 mm in the assay on S. pneumoniae 010010 [4]; 25 ± 0.88 mm in the assay with A. fumigatus RCMB 02568 [10]; 22 ± 0.3 mm in the assay with C. albicans ATCC 10231 [13]; 21 ± 0.54 mm with S. typhi ATCC 14028 [14].

Consider `Cc1c(Nc2nc3c(C(=O)NN)c(N)sc3s2)c(=O)n(-c2ccccc2)n1C` [Compound 3c, 5-Amino-2-((1,5-dimethyl-3-oxo-2-phenyl-2,3-dihydro-1H-pyrazol-4-yl)amino) thieno[3,2-d]thiazole-6-carbohydrazide], for which the MIC in the assay on E. coli RCMB 010052 [1] was 14.2 µM (≈ 5.89 µg/mL); in the assay with S. typhi ATCC 14028 [5], 64 µM (≈ 26.6 µg/mL); in the assay with S. aureus 25923 [6], 4.12 µM (≈ 1.71 µg/mL); in the assay with A. fumigatus RCMB 02568 [7] it was 19.2 µM (≈ 7.99 µg/mL); in the assay with E. faecalis [8], 17.3 µM (≈ 7.18 µg/mL); in the assay with P. aeruginosa [9] it was 42.2 µM (≈ 17.5 µg/mL). The MIC with S. pneumoniae 010010 [11] worked out at 20.1 µM (≈ 8.37 µg/mL); with C. albicans ATCC 10231 [12], 18.4 µM (≈ 7.65 µg/mL). The zone of inhibition at 500 µg/mL in the assay on P. aeruginosa [2] was found to be 23 ± 0.13 mm; in the assay with E. coli RCMB 010052 [3], 28 ± 0.92 mm; in the assay with S. pneumoniae 010010 [4] it was 25 ± 0.17 mm; in the assay with E. faecalis [15] it was 27 ± 0.36 mm; in the assay on A. fumigatus RCMB 02568 [10] it was 24 ± 0.15 mm; in the assay with C. albicans ATCC 10231 [13], 18 ± 0.67 mm. Besides, the zone of inhibition at 500 µg/mL with S. typhi ATCC 14028 [14] came to 21 ± 0.16 mm; with S. aureus 25923 [16], 30 ± 0.47 mm.
